Source: patent US7939064B2 (priority 2006, dated 2011)

System: organotypic hippocampal slices

## C[C@]12N[C@H](Cc3ccccc31)c1ccccc12 [MK801, dizocilpine, reference compound]
  protection of neuronal injury upon OGD: showed protection of neuronal injury
